# In all, about 280,000 compounds went through this assay and about 540 (0.19%) were called active. Inconclusive means that the source gave no clear call. Such entries were picked first, then a sample of the others. The call rests on the fitted dose curve; in most records, active means well fitted activation curve with a large enough effect; inconclusive means small, poorly fitted or top-dose-only effect; inactive means flat fitted curve, though single readings scatter. A potency beside an inconclusive call is a rough fit, not a confirmed value.
# Assay: Quantitative High-Throughput Screen for Regulators of Epigenetic Control; further: nearly all actives have a fitted effect of over 60% in size; on GFP activation: % of control where 0% means no effect
# Settings: murine LDR cells, GFP reporter derepression, 30 h; GFP activation: at 53.9 µM (top of the series)
# Text: NIH Molecular Libraries Screening Centers Network [MLPCN] NIH Chemical Genomics Center [NCGC] MLSCN Grant: 1 X01 MH079860-01 Assay Provider: Elisabeth D. Martinez, University of Texas SW Medical Center NCGC Assay Overview: The Locus Derepression (LDR) assay detects the derepression or induction of a GFP reporter that is stably integrated in a genomic region of murine cells that is presumably silenced. Transcription of the GFP reporter is controlled by a CMV promoter, which normally is constitutively active. However, this cell line, termed LDR, was selected for lack of constitutive production of GFP. GFP production can be induced by incubating the cells with histone deacetylase or DNA methyltransferase inhibitors (Martinez et al., 2006). Compounds that derepress or induce this reporter locus are identified by enumerating GFP positive cells using a laser-scanning microplate cytometer (Auld et al., 2006). This assay was screened against the MLSMR earlier (AID 597; (Johnson et al., 2008) and has been rescreened here against the expanded collection.
# NCGC Assay Protocol Summary: Three hundred LDR cells in 5 uL per well were dispensed into black, clear-bottom 1536-well plates. Twenty-three nL compound was transferred to the assay plate and cells were incubated 30 hours at 37 C. Medium was removed, cells were washed two times with PBS, and GFP-positive cells were enumerated as fluorescent objects between the sizes of 20 to 120 um width and depth using an Acumen Explorer. References Auld, DS, Johnson, RL, Zhang, YQ, Veith, H, Jadhav, A, Yasgar, A, Simeonov, A, Zheng, W, Martinez, ED, Westwick, JK, Austin, CP, Inglese, J (2006). Fluorescent protein-based cellular assays analyzed by laser-scanning microplate cytometry in 1536-well plate format. Methods Enzymol 414: 566-89. Johnson, RL, Huang, W, Jadhav, A, Austin, CP, Inglese, J, Martinez, ED (2008). A quantitative high-throughput screen identifies potential epigenetic modulators of gene expression. Anal Biochem 375: 237-48. Martinez, ED, Dull, AB, Beutler, JA, Hager, GL (2006). High-content fluorescence-based screening for epigenetic modulators. Methods Enzymol 414: 21-36.
# Potency means the concentration at half of the fitted maximal effect; tags describe the fitted curve by direction and shape.
Compound,Potency,GFP activation
CCN(CC)S(=O)(=O)c1ccc(C(=O)Nc2nc3ccc(Cl)cc3s2)cc1,"inconclusive: 35.5 µM [activator, single point]",–
Cc1cc(C)cc(OCc2cc(=O)n3c(-c4ccccc4)csc3n2)c1,"inconclusive: 35.5 µM [activator, single point]",–
Cc1ccc(S(=O)(=O)c2nnn3c2nc(NCc2cccs2)c2sccc23)cc1,"inconclusive: 31.6 µM [activator, single point]",–
CCOCc1cc(CN2CCN(c3ccccc3OC)CC2)c(O)c2ncccc12,"inconclusive: 0.631 µM [activator, partial curve, poor fit]",–
CCCC(C(=O)NC1CCCC1)N(Cc1cccs1)C(=O)c1snc(C(N)=O)c1N (stereo not given),–,inactive: 1.28%
Oc1ccccc1Nc1nc2ccccc2n2nnnc12,active: 12.6 µM,–
CC1=C(C(=O)Nc2ccccc2)C(c2ccc(O)cc2)N2C(=O)CSC2=N1 (stereo not given),"inconclusive: 15.8 µM [activator, single point]",–
Cc1nc(-c2ccccc2)sc1C(=O)/C=C/c1ccccc1,"inconclusive: 35.5 µM [activator, single point]",–
Cc1sc2ncnc(NCc3cccs3)c2c1C,–,inactive: 1%
COc1cccc(NC(=O)C2CCCN(S(=O)(=O)c3cccc4nonc34)C2)c1 (stereo not given),"inconclusive: 35.5 µM [activator, single point]",–
Cc1ccc(Nc2nc(Cl)c(C=O)s2)cc1Cl,"inconclusive: 15.8 µM [activator, single point]",–
O=C(Nc1ccc(OC(F)(F)F)cc1)Nc1cccc([N+](=O)[O-])c1,"inconclusive: 6.31 µM [activator, single point]",–
CCOC(=O)c1c(NC(=O)CSc2cn(CCNC(=O)c3ccc(OC)cc3)c3ccccc23)sc2c1CCCC2,–,inactive: 0%
O=C(c1ccccc1)c1c2c(cc3sc4ccccc4[n+]13)-c1cccc3cccc-2c13,active: 11.2 µM,–
CCN(CC)C(C)CN1c2ccccc2Sc2ccccc21 (stereo not given),"inconclusive: 35.5 µM [activator, single point]",–
CC(C)(C)C(=O)/C=C/Nc1ccccc1O,"inconclusive: 35.5 µM [activator, single point]",–
CC(C)C(NC(=O)c1ccccc1Cl)C(=O)OCc1nc2scc(-c3ccccc3Cl)c2c(=O)[nH]1 (stereo not given),–,inactive: -1.92%
CCc1ccc(NC(=O)CN2C(=O)CSc3ccc(S(=O)(=O)N(C)C)cc32)cc1,–,inactive: -2.56%
Cc1ccc(C)c(NC(=O)Cn2cc(S(=O)(=O)Cc3cccc(Cl)c3)c3ccccc32)c1,"inconclusive: 22.4 µM [activator, single point]",–
Cc1cc(C)nc(Sc2nc(Cl)nc(N(c3ccccc3)c3ccccc3)n2)n1,"inconclusive: 35.5 µM [activator, single point]",–
Cc1nn(-c2ccccc2)c(Cl)c1/C=N/NC(N)=O,–,inactive: 0.972%
O=C(c1c(F)cccc1F)N1CCN(c2cccc(C(F)(F)F)c2)CC1,"inconclusive: 0.224 µM [activator, full curve, poor fit]",–
COc1ccc(OCC(O)CN2CCCCCC2)cc1 (stereo not given),–,inactive: 1.19%

Compound,Potency,GFP activation
O=C(COc1ccc(F)cc1)Nc1nnc(S(=O)(=O)N2CCCC2)s1,"inconclusive: 35.5 µM [activator, single point]",–
C=CC(C)(C)c1c2c(c(O)c3c(=O)c4ccc(O)c(O)c4oc13)C=CC(C)(C)O2,–,inactive: -0.0725%
Cc1ccc(N=Nc2c(O)[nH]c3ccc(F)cc23)cc1,"inconclusive: 25.1 µM [activator, single point]",–
Nc1nc2c(s1)CCc1c-2cnn1-c1ccccc1,"inconclusive: 35.5 µM [activator, single point]",–
COc1ccc(C(=O)NNC(=O)OC(C)(C)C)cc1,–,inactive: -1.02%
N=c1n(CC(=O)c2ccc([N+](=O)[O-])cc2)c2ccccc2n1Cc1ccccc1Cl,"inconclusive: 10 µM [activator, partial curve]",–
Cc1nn(C)c(C(=O)Nc2ccc(Cl)c([N+](=O)[O-])c2)c1Cl,"inconclusive: 5.01 µM [activator, single point]",–
COc1cc(C)ccc1OCCCOc1ccccc1Cl,"inconclusive: 17.8 µM [activator, single point]",–
COc1ccccc1N/C=C(\C#N)c1nc2ccccc2[nH]1,"inconclusive: 31.6 µM [activator, single point]",–
CCOc1ccccc1CNC(=O)CCc1c(C)nn(-c2ccc(N3CCCC3)nn2)c1C,–,inactive: 1.06%
C=CCc1cccc2cc(-c3nc4ccc(C)cc4[nH]3)c(=O)oc12,active: 3.98 µM,–
Cc1ccc(S(=O)(=O)Nc2ccc(O)c3ncccc23)cc1,"inconclusive: 22.4 µM [activator, single point]",–
CCC(=O)Nc1ccc2c(c1)C(=O)c1ccccc1C2=O,–,inactive: -1.2%
COc1ccc(OC)c(/C=C/c2nc3ccccc3c(=O)n2-c2ccc(F)c(Cl)c2)c1,"inconclusive: 31.6 µM [activator, single point]",–
COc1ccc2c(n1)Sc1nc3ccccc3nc1N2,active: 6.31 µM,–
CCCCNC(=S)NNC(=O)c1c(C)nc2ccccn12,"inconclusive: 4.47 µM [activator, single point]",–
C(=N\NC1=Nc2cccc3cccc1c23)/c1ccccn1,"inconclusive: 31.6 µM [activator, single point]",–
O=C1C2CCCN2C(=O)N1CCCCN1CCN(c2ccccc2)CC1 (stereo not given),"inconclusive: 17.8 µM [activator, single point]",–
COc1ccc(CCNC(=O)C(=O)NCC(c2ccco2)S(=O)(=O)c2ccc(C)cc2)cc1 (stereo not given),"inconclusive: 31.6 µM [activator, single point]",–
COC(=O)c1cccc(Cn2c(Cl)c(/C=N/NC(=O)c3ccccc3Cl)sc2=O)c1,"inconclusive: 35.5 µM [activator, single point]",–
Cc1ccc(NC(=O)CN2C(=O)N/C(=C/c3ccc(C)s3)C2=O)cc1,"inconclusive: 35.5 µM [activator, single point]",–
CC/C(=N/Nc1cccc(Cl)c1)c1cnnc(SC)n1,"inconclusive: 25.1 µM [activator, single point]",–
